Our source for the viability index values is the supplement of paper PMC4723716.

SMILES strings stand for the structures. ± gives the uncertainty stated by the source. Whole data set: some 9,900 compounds, median “viability index relative to DMSO control” near 1, cut for the lowest 2% near 0.85. Some of the results follow.

The experiment deals with Plasmodium falciparum NF54 stage V gametocytes. Briefly: viability index relative to DMSO control (fraction); higher = less gametocyte killing. Particulars: 2.5 µM, library set: Broad Institute DOS, incubation time: 72 h. In short, it runs like this: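 Compound at 2.5 µM was incubated for 72 hr at 37°C under low oxygen with P. falciparum NF54 stage V gametocytes (0.75% gametocytemia, 1.25% hematocrit, 10 µl, serum-free screening medium) in 1,536-well plates. Staining used 3 µl of 2.5 µM MitoTracker Red CMXRos plus 0.13% saponin for one to two hours, and red particles of 20–70 µm2 were counted in one imaged field per well. Each viability index is that count relative to the plate mean of solvent-only wells.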

In turn, `COc1cccc(-c2cccc(-c3nc(C(=O)Nc4ccc(-c5ccccc5)cc4)cc4c3[C@@H](CCO)N(S(=O)C(C)(C)C)C4)c2)c1` (some centres undefined) gave a viability index of 1.09 ± 0.027.
With `O=C(Cc1ccccc1)N1CC(=O)N2[C@H](CO)[C@@H](c3ccc(-c4ccc(F)cc4)cc3)[C@H]2C1` the figure was 0.998 ± 0.033.
With `O=C(NC[C@@H]1[C@@H](c2ccccc2)[C@H](CO)N1Cc1ccccn1)C1CCCC1` the figure was 1.05 ± 0.068; with `C[C@H]1CN([C@@H](C)CO)C(=O)Cc2cc(NC(=O)CCCCCC(=O)Nc3ccccc3N)ccc2O[C@H]1CN(C)S(=O)(=O)c1cccs1`, 1.02 ± 0.043.
The value for `COc1ccccc1-c1ccc([C@@H]2[C@@H](C#N)N(C(=O)c3cccnc3)[C@@H]2CO)cc1` was 1.06 ± 0.063.
In turn, `COc1cccc(S(=O)(=O)N[C@H]2CC[C@H](CC(=O)NC3Cc4ccccc4C3)O[C@@H]2CO)c1` gave a viability index of 1.04 ± 0.078.
The value for `O=C(C[C@@H]1CC[C@H]2[C@@H](COC[C@@H](O)CN2Cc2ccc(Oc3ccccc3)cc2)O1)N1CCN(c2ccccc2)CC1` was 1.059 ± 0.0032.
The value for `C[C@@H]1CCCCO[C@@H](CN(C)Cc2ccncc2)[C@H](C)CN([C@@H](C)CO)C(=O)c2cc(NC(=O)Cc3ccccc3)ccc2O1` was 1.09 ± 0.064; that for `Cc1noc(C)c1S(=O)(=O)N(C)C[C@H]1OCc2ccccc2-c2ccccc2C(=O)N([C@@H](C)CO)C[C@@H]1C` was 0.984 ± 0.024; that for `CCC(=O)N1C[C@H](O)COC[C@@H]2O[C@H](CC(=O)NC)CC[C@H]21` was 1.1 ± 0.071.
With `C[C@@H]1CN([C@@H](C)CO)C(=O)c2cc(NS(=O)(=O)c3cn(C)cn3)ccc2O[C@@H](C)CCCCO[C@@H]1CN(C)Cc1ccc2c(c1)OCO2` the figure was 1.07 ± 0.018; with `CC(C)NC(=O)N(C)C[C@H]1Oc2ccc(NC(=O)Cc3ccccc3)cc2CC(=O)N([C@@H](C)CO)C[C@@H]1C`, 0.912 ± 0.002.
Turning to `CN(C)CC(=O)N[C@@H]1C=C[C@@H](CC(=O)NCc2ccc(Cl)cc2)O[C@H]1CO`, the viability index stood at 1.125 ± 0.0094.
With `CN(C)CC(=O)N1[C@@H](C#N)[C@@H](c2ccc(C#CC3CCCCC3)cc2)[C@@H]1CO` the figure was 1.0785 ± 0.001; with `CCC(=O)N1C[C@H](C)[C@@H](OC)CN(C)C(=O)c2cc(NC(=O)Nc3ccc(Cl)cc3)ccc2OC[C@H]1C`, 1.03 ± 0.06.
Regarding `O=C(C[C@H]1C[C@@H]2c3cc(NS(=O)(=O)c4ccccc4)ccc3O[C@@H]2[C@H](CO)O1)N1CCOCC1`, the viability index worked out at 1.1145 ± 0.00073.
The value for `N#C[C@H]1[C@@H](c2ccccc2)[C@@H](CO)N1S(=O)(=O)c1cccc(F)c1` was 1.09 ± 0.015.
With `C[C@H](CO)N1C[C@H](C)[C@H](CN(C)S(C)(=O)=O)Oc2cc(-c3ccncc3)ccc2S1(=O)=O` the figure was 1.18 ± 0.086.
With `C[C@H]1CN([C@@H](C)CO)C(=O)c2cccc(NC(=O)C3CCOCC3)c2O[C@@H]1CN(C)C(=O)Nc1cccc2ccccc12` the figure was 1.03 ± 0.11; with `COc1ccc(-c2ccc([C@@H]3[C@H]4CN(C(=O)C5CC5)CC(=O)N4[C@H]3CO)cc2)cc1`, 1.08 ± 0.042; with `C[C@@H]1CN([C@H](C)CO)C(=O)c2cccc(NC(=O)c3ccc(-c4nccs4)cc3)c2O[C@H]1CN(C)C(=O)Nc1ccc(C(F)(F)F)cc1`, 0.97 ± 0.025.
Take `C[C@H](NC(=O)C[C@H]1C[C@H]2c3cc(NS(=O)(=O)c4ccc(F)cc4)ccc3O[C@H]2[C@@H](CO)O1)c1ccccc1`: the viability index worked out at 1.111 ± 0.0095.
On to `C[C@@H](NC(=O)[C@H]1[C@H](CO)[C@H]2Cn3c(cccc3=O)[C@@H]1N2C(=O)C1CCC1)c1ccccc1`, for which the viability index is 0.974 ± 0.1.
With `CC(=O)N1Cc2cc(C(=O)NCC(F)(F)F)nc(-c3cccc(-c4cccnc4)c3)c2[C@H]1CCO` the figure was 1.16 ± 0.022; with `Cc1ccc(S(=O)(=O)N(C)C[C@@H]2OCCCC[C@@H](C)Oc3ccc(NC(=O)c4ccncc4)cc3C(=O)N([C@@H](C)CO)C[C@@H]2C)cc1`, 1.01 ± 0.064; with `C[C@H](CO)N1C[C@H](C)[C@H](CN(C)C(=O)c2cnccn2)Oc2cc(C#CCC3CCCC3)ccc2S1(=O)=O`, 0.901 ± 0.13.
For the compound `O=C(C1CCCCC1)N1CC2(C1)[C@@H](c1ccccc1)[C@@H](CO)N2C(=O)c1cccnc1`, the viability index was 0.9508 ± 0.0059.
The compound `Cc1ccc(S(=O)(=O)N2CC[C@@H]3[C@H]2c2cc(-c4ccccc4F)ccc2N(C)[C@H]3CO)cc1` returned a viability index of 1.08 ± 0.041.
With `N#C[C@@H]1[C@H](c2ccccc2)[C@H](CO)N1C(=O)CCN1CCCCC1` the figure was 1.05 ± 0.056; with `CNC[C@H]1OCCCC[C@H](C)Oc2ccc(NC(=O)Nc3ccc(OC)cc3)cc2C(=O)N([C@H](C)CO)C[C@@H]1C`, 1.07 ± 0.022.
The value for `C[C@H]1CN([C@@H](C)CO)C(=O)c2ccccc2-c2ccccc2CO[C@@H]1CN(C)S(=O)(=O)c1cccs1` was 1.07 ± 0.056.
With `CN1c2ccc(-c3cccc(C#N)c3)cc2[C@H]2[C@H](CCN2C(=O)CN2CCOCC2)[C@@H]1CO` the figure was 1.12 ± 0.027.
The compound `Cc1noc(C)c1NC(=O)Nc1ccc2c(c1)C(=O)N([C@H](C)CO)C[C@@H](C)[C@@H](CN(C)S(=O)(=O)c1ccc(F)cc1)O2` showed a viability index of 1.03 ± 0.13.
With `O=C(C[C@H]1CC[C@H]2NC[C@H](O)COC[C@@H]2O1)NCc1ccc2c(c1)OCO2` the figure was 0.982 ± 0.03.
